Measured values from the supplement of paper PMC12230231.
± gives the standard deviation of the averaged measurements. Restriction of a single-cycle SIVsab GFP reporter by TRIM5α v1-loop variants in CRFK cells. Human variants: read share among cells still uninfected after two challenges over input, higher = gained restriction. Rhesus variants: share among infected cells over input, higher = lost restriction. Reporter dose not given per row. No active / inactive call per row; the paper calls a change when both replicates lie above its controls (mean + 2 SD of stop or wild-type variants, or the top frameshift score). Residues outside the varied loop are taken from Swiss-Prot. The paper reads the human single-substitution scores as noise; they and the rhesus combinations repeat poorly (rank correlation 0.3 to 0.4), indel scores repeat only for the top variants, rhesus substitutions well (0.9).

System: SIVsab (simian immunodeficiency virus of sabaeus monkeys), single-cycle GFP reporter, in CRFK cells
Assay: enrichment among uninfected cells over input (fold); higher = stronger restriction
Settings: library: human / rhesus combinations
Method: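 Pools of CRFK cells expressing variants of the TRIM5α v1 loop were challenged with the single-cycle reporter, sorted by GFP and sequenced; mean of two replicates.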

Row | Sequence | enrichment
1 | MASGILVNVKEEVTCPICLELLTQPLSLDCGHSFCQACLTANHKKSMLDKGESSCPVCRISYQPENIRPNRHVANIVEKLREVKLSPEGQKVDHCARHGEKLLLFCQEDGKVICWLCERSQEHRGHHTFLTEEVAREYQVKLQAALEMLRQKQQEAEELEADIREEKASWKTQIQYDKTNVLADFEQLRDILDWEESNELQNLEKEEEDILKSLTNSETEMVQQTQSLRELISDLEHRLQGSVMELLQGVDGVIKRTENVTLKKPETFPKNQRRVFRAPDLKGMLEVFRELTDVRRYWVDVTVAPNNISCAVISEDKRQVSSPKPQIIYQARGTLFTFQSLTNFNYCTGILGSQSITSGKHYWEVDVSKKTAWILGVCAGFQPDAMCNIEKNENYQPKYGYWVIGLEEGVKCSAFQDSSFHTPSVPFIVPLSVIICPDRVGVFLDYEACTVSFFNITNHGFLIYKFSHCSFSQPVFPYLNPRKCGVPMTLCSPSS [human TRIM5α, 330-340 = QARGTLFTFQSLT] | 0.252 ± 0.064
2 | MASGILVNVKEEVTCPICLELLTQPLSLDCGHSFCQACLTANHKKSMLDKGESSCPVCRISYQPENIRPNRHVANIVEKLREVKLSPEGQKVDHCARHGEKLLLFCQEDGKVICWLCERSQEHRGHHTFLTEEVAREYQVKLQAALEMLRQKQQEAEELEADIREEKASWKTQIQYDKTNVLADFEQLRDILDWEESNELQNLEKEEEDILKSLTNSETEMVQQTQSLRELISDLEHRLQGSVMELLQGVDGVIKRTENVTLKKPETFPKNQRRVFRAPDLKGMLEVFRELTDVRRYWVDVTVAPNNISCAVISEDKRQVSSPKPQIIYQARGTRYPTLVNFNYCTGILGSQSITSGKHYWEVDVSKKTAWILGVCAGFQPDAMCNIEKNENYQPKYGYWVIGLEEGVKCSAFQDSSFHTPSVPFIVPLSVIICPDRVGVFLDYEACTVSFFNITNHGFLIYKFSHCSFSQPVFPYLNPRKCGVPMTLCSPSS [human TRIM5α, 330-340 = QARGTRYPTLV] | 0.00101 ± 3.2e-05

Same assay, conditions: library: insertions and deletions

Row | Sequence | enrichment
3 | MASGILVNVKEEVTCPICLELLTQPLSLDCGHSFCQACLTANHKKSMLDKGESSCPVCRISYQPENIRPNRHVANIVEKLREVKLSPEGQKVDHCARHGEKLLLFCQEDGKVICWLCERSQEHRGHHTFLTEEVAREYQVKLQAALEMLRQKQQEAEELEADIREEKASWKTQIQYDKTNVLADFEQLRDILDWEESNELQNLEKEEEDILKSLTNSETEMVQQTQSLRELISDLEHRLQGSVMELLQGVDGVIKRTENVTLKKPETFPKNQRRVFRAPDLKGMLEVFRELTDVRRYWVDVTVAPNNISCAVISEDKRQVSSPKPQIIYGARGTRYQTFVNFNYCTNFNYCTGILGSQSITSGKHYWEVDVSKKTAWILGVCAGFQPDAMCNIEKNENYQPKYGYWVIGLEEGVKCSAFQDSSFHTPSVPFIVPLSVIICPDRVGVFLDYEACTVSFFNITNHGFLIYKFSHCSFSQPVFPYLNPRKCGVPMTLCSPSS [human TRIM5α, 6-codon duplication at 341] | 0.794 ± 0.14
4 | MASGILVNVKEEVTCPICLELLTQPLSLDCGHSFCQACLTANHKKSMLDKGESSCPVCRISYQPENIRPNRHVANIVEKLREVKLSPEGQKVDHCARHGEKLLLFCQEDGKVICWLCERSQEHRGHHTFLTEEVAREYQVKLQAALEMLRQKQQEAEELEADIREEKASWKTQIQYDKTNVLADFEQLRDILDWEESNELQNLEKEEEDILKSLTNSETEMVQQTQSLRELISDLEHRLQGSVMELLQGVDGVIKRTENVTLKKPETFPKNQRRVFRAPDLKGMLEVFRELTDVRRYWVDVTVAPNNISCAVISEDKRQVSSPKPQIIYGARGTRYQTFVNFNFNYCTGILGSQSITSGKHYWEVDVSKKTAWILGVCAGFQPDAMCNIEKNENYQPKYGYWVIGLEEGVKCSAFQDSSFHTPSVPFIVPLSVIICPDRVGVFLDYEACTVSFFNITNHGFLIYKFSHCSFSQPVFPYLNPRKCGVPMTLCSPSS [human TRIM5α, 2-codon duplication at 341] | 0.502 ± 0.45
5 | MASGILVNVKEEVTCPICLELLTQPLSLDCGHSFCQACLTANHKKSMLDKGESSCPVCRISYQPENIRPNRHVANIVEKLREVKLSPEGQKVDHCARHGEKLLLFCQEDGKVICWLCERSQEHRGHHTFLTEEVAREYQVKLQAALEMLRQKQQEAEELEADIREEKASWKTQIQYDKTNVLADFEQLRDILDWEESNELQNLEKEEEDILKSLTNSETEMVQQTQSLRELISDLEHRLQGSVMELLQGVDGVIKRTENVTLKKPETFPKNQRRVFRAPDLKGMLEVFRELTDVRRYWVDVTVAPNNISCAVISEDKRQVSSPKPQIIYGARGTRYQTFVNTGILGSQSITSGKHYWEVDVSKKTAWILGVCAGFQPDAMCNIEKNENYQPKYGYWVIGLEEGVKCSAFQDSSFHTPSVPFIVPLSVIICPDRVGVFLDYEACTVSFFNITNHGFLIYKFSHCSFSQPVFPYLNPRKCGVPMTLCSPSS [human TRIM5α, 4-codon deletion at 342] | 1.09 ± 0.36
6 | MASGILVNVKEEVTCPICLELLTQPLSLDCGHSFCQACLTANHKKSMLDKGESSCPVCRISYQPENIRPNRHVANIVEKLREVKLSPEGQKVDHCARHGEKLLLFCQEDGKVICWLCERSQEHRGHHTFLTEEVAREYQVKLQAALEMLRQKQQEAEELEADIREEKASWKTQIQYDKTNVLADFEQLRDILDWEESNELQNLEKEEEDILKSLTNSETEMVQQTQSLRELISDLEHRLQGSVMELLQGVDGVIKRTENVTLKKPETFPKNQRRVFRAPDLKGMLEVFRELTDVRRYWVDVTVAPNNISCAVISEDKRQVSSPKPQIIYGARGTRIIYGARGTRYQTFVNFNYCTGILGSQSITSGKHYWEVDVSKKTAWILGVCAGFQPDAMCNIEKNENYQPKYGYWVIGLEEGVKCSAFQDSSFHTPSVPFIVPLSVIICPDRVGVFLDYEACTVSFFNITNHGFLIYKFSHCSFSQPVFPYLNPRKCGVPMTLCSPSS [human TRIM5α, 9-codon duplication at 327] | 0.523 ± 0.46
7 | MASGILVNVKEEVTCPICLELLTQPLSLDCGHSFCQACLTANHKKSMLDKGESSCPVCRISYQPENIRPNRHVANIVEKLREVKLSPEGQKVDHCARHGEKLLLFCQEDGKVICWLCERSQEHRGHHTFLTEEVAREYQVKLQAALEMLRQKQQEAEELEADIREEKASWKTQIQYDKTNVLADFEQLRDILDWEESNELQNLEKEEEDILKSLTNSETEMVQQTQSLRELISDLEHRLQGSVMELLQGVDGVIKRTENVTLKKPETFPKNQRRVFRAPDLKGMLEVFRELTDVRRYWVDVTVAPNNISCAVISEDKRQVSSPKPQIIYGARGTRYQTFVNFNYCFNYCTGILGSQSITSGKHYWEVDVSKKTAWILGVCAGFQPDAMCNIEKNENYQPKYGYWVIGLEEGVKCSAFQDSSFHTPSVPFIVPLSVIICPDRVGVFLDYEACTVSFFNITNHGFLIYKFSHCSFSQPVFPYLNPRKCGVPMTLCSPSS [human TRIM5α, 4-codon duplication at 342] | 1.15 ± 0.95
8 | MASGILVNVKEEVTCPICLELLTQPLSLDCGHSFCQACLTANHKKSMLDKGESSCPVCRISYQPENIRPNRHVANIVEKLREVKLSPEGQKVDHCARHGEKLLLFCQEDGKVICWLCERSQEHRGHHTFLTEEVAREYQVKLQAALEMLRQKQQEAEELEADIREEKASWKTQIQYDKTNVLADFEQLRDILDWEESNELQNLEKEEEDILKSLTNSETEMVQQTQSLRELISDLEHRLQGSVMELLQGVDGVIKRTENVTLKKPETFPKNQRRVFRAPDLKGMLEVFRELTDVRRYWVDVTVAPNNISCAVISEDKRQVSSPKPQIIYGARGTRYQNFNYCTGILGSQSITSGKHYWEVDVSKKTAWILGVCAGFQPDAMCNIEKNENYQPKYGYWVIGLEEGVKCSAFQDSSFHTPSVPFIVPLSVIICPDRVGVFLDYEACTVSFFNITNHGFLIYKFSHCSFSQPVFPYLNPRKCGVPMTLCSPSS [human TRIM5α, 3-codon deletion at 338] | 0.536 ± 0.16
9 | MASGILVNVKEEVTCPICLELLTQPLSLDCGHSFCQACLTANHKKSMLDKGESSCPVCRISYQPENIRPNRHVANIVEKLREVKLSPEGQKVDHCARHGEKLLLFCQEDGKVICWLCERSQEHRGHHTFLTEEVAREYQVKLQAALEMLRQKQQEAEELEADIREEKASWKTQIQYDKTNVLADFEQLRDILDWEESNELQNLEKEEEDILKSLTNSETEMVQQTQSLRELISDLEHRLQGSVMELLQGVDGVIKRTENVTLKKPETFPKNQRRVFRAPDLKGMLEVFRELTDVRRYWVDVTVAPNNISCAVISEDKRQVSSPKPQIIYGARGTRYQTFVNFNILGSQSITSGKHYWEVDVSKKTAWILGVCAGFQPDAMCNIEKNENYQPKYGYWVIGLEEGVKCSAFQDSSFHTPSVPFIVPLSVIICPDRVGVFLDYEACTVSFFNITNHGFLIYKFSHCSFSQPVFPYLNPRKCGVPMTLCSPSS [human TRIM5α, 4-codon deletion at 344] | 1.06 ± 0.67
10 | MASGILVNVKEEVTCPICLELLTQPLSLDCGHSFCQACLTANHKKSMLDKGESSCPVCRISYQPENIRPNRHVANIVEKLREVKLSPEGQKVDHCARHGEKLLLFCQEDGKVICWLCERSQEHRGHHTFLTEEVAREYQVKLQAALEMLRQKQQEAEELEADIREEKASWKTQIQYDKTNVLADFEQLRDILDWEESNELQNLEKEEEDILKSLTNSETEMVQQTQSLRELISDLEHRLQGSVMELLQGVDGVIKRTENVTLKKPETFPKNQRRVFRAPDLKGMLEVFRELTDVRRYWVDVTVAPNNISCAVISEDKRQVSSPPQIIYGARGTRYQTFVNFNYCTGILGSQSITSGKHYWEVDVSKKTAWILGVCAGFQPDAMCNIEKNENYQPKYGYWVIGLEEGVKCSAFQDSSFHTPSVPFIVPLSVIICPDRVGVFLDYEACTVSFFNITNHGFLIYKFSHCSFSQPVFPYLNPRKCGVPMTLCSPSS [human TRIM5α, 1-codon deletion at 324] | 1.15 ± 0.23
11 | MASGILVNVKEEVTCPICLELLTQPLSLDCGHSFCQACLTANHKKSMLDKGESSCPVCRISYQPENIRPNRHVANIVEKLREVKLSPEGQKVDHCARHGEKLLLFCQEDGKVICWLCERSQEHRGHHTFLTEEVAREYQVKLQAALEMLRQKQQEAEELEADIREEKASWKTQIQYDKTNVLADFEQLRDILDWEESNELQNLEKEEEDILKSLTNSETEMVQQTQSLRELISDLEHRLQGSVMELLQGVDGVIKRTENVTLKKPETFPKNQRRVFRAPDLKGMLEVFRELTDVRRYWVDVTVAPNNISCAVISEDKRQVSSPKPIIYGARGTRYQTFVNFNYCTGILGSQSITSGKHYWEVDVSKKTAWILGVCAGFQPDAMCNIEKNENYQPKYGYWVIGLEEGVKCSAFQDSSFHTPSVPFIVPLSVIICPDRVGVFLDYEACTVSFFNITNHGFLIYKFSHCSFSQPVFPYLNPRKCGVPMTLCSPSS [human TRIM5α, 1-codon deletion at 326] | 0.584 ± 0.022
12 | MASGILVNVKEEVTCPICLELLTQPLSLDCGHSFCQACLTANHKKSMLDKGESSCPVCRISYQPENIRPNRHVANIVEKLREVKLSPEGQKVDHCARHGEKLLLFCQEDGKVICWLCERSQEHRGHHTFLTEEVAREYQVKLQAALEMLRQKQQEAEELEADIREEKASWKTQIQYDKTNVLADFEQLRDILDWEESNELQNLEKEEEDILKSLTNSETEMVQQTQSLRELISDLEHRLQGSVMELLQGVDGVIKRTENVTLKKPETFPKNQRRVFRAPDLKGMLEVFRELTDVRRYWVDVTVAPNNISCAVISEDKRQVSSPKPQIIYGARGTRYQTFVNFNYTFVNFNYCTGILGSQSITSGKHYWEVDVSKKTAWILGVCAGFQPDAMCNIEKNENYQPKYGYWVIGLEEGVKCSAFQDSSFHTPSVPFIVPLSVIICPDRVGVFLDYEACTVSFFNITNHGFLIYKFSHCSFSQPVFPYLNPRKCGVPMTLCSPSS [human TRIM5α, 7-codon duplication at 338] | 0.387 ± 0.15
